In all, about 33,000 sequences were measured (“E-score (-0.5 to 0.5)”: median about -0.053, highest 2% from about 0.37 on). The list shows a part of the results.

From the supplement of paper PMC3334620 come the findings set out here.

The target of the assay is Hap1 (UniProt P0CE41). Briefly: PBM E-score (8-mer binding enrichment) (E-score (-0.5 to 0.5)); higher = stronger / more preferred TF binding; most listed sequences are background and not binding sites. To be noted: protein concentration: 200 nM; construct: GST-DNA-binding domain. An outline of the steps: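 Detection of bound protein used fluorescent anti-GST, with scans normalised by masliner. The proteins were GST-tagged yeast transcription factors applied at about 100-200 nM to universal all-10-mer Agilent arrays made double-stranded by primer extension. Each ungapped eight-base word, pooled with its reverse complement, was scored with an E-score from the Universal PBM Analysis Suite.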
UniProt P0CE41, sequence (P0CE41 whole entry, the tested form may be a part): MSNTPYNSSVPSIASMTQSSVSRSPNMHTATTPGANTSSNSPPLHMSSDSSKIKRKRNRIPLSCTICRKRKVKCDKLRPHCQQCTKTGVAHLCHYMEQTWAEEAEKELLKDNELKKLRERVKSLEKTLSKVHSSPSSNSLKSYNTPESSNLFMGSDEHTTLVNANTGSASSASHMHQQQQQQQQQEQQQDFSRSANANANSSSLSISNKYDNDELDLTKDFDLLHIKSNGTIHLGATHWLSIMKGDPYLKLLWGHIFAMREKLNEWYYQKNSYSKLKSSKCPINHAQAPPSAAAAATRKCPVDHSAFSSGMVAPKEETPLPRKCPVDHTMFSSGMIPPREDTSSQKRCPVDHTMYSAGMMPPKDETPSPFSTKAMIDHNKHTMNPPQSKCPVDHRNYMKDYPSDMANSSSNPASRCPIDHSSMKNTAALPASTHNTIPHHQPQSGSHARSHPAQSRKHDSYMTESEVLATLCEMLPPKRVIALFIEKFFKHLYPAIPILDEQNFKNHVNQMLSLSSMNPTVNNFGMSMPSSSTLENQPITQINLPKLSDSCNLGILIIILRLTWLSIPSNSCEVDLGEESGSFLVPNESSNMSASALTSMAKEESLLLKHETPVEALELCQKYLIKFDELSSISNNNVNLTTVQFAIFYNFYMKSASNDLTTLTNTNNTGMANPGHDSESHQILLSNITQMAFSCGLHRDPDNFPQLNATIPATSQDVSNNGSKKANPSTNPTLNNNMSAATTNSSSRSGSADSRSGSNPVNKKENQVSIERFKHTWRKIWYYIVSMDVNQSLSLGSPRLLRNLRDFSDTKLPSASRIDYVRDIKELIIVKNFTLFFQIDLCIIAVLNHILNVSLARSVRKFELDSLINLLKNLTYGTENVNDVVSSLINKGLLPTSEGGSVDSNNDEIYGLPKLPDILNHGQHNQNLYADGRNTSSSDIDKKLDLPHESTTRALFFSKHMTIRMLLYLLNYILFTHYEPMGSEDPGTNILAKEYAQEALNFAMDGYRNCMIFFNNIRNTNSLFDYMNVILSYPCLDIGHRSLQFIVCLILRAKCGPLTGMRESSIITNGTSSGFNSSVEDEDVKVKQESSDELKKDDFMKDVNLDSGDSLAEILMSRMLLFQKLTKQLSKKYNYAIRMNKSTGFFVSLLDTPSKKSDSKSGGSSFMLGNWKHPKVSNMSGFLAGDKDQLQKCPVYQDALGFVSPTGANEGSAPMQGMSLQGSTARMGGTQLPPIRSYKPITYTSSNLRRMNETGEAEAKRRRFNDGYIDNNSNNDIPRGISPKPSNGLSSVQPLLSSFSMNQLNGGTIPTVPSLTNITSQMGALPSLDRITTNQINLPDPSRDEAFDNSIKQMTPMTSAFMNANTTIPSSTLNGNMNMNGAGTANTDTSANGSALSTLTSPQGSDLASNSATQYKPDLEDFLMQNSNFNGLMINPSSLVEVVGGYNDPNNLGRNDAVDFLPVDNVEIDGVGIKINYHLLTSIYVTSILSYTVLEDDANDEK
Consider CATGTACC, for which the “PBM E-score” value is -0.161.

For GCCTGCCA, the “PBM E-score” value is -0.181. With CCAAAACC, the “PBM E-score” value stood at 0.0626. As to GTCAACAA, the “PBM E-score” value was -0.228. As for AGCCAGCC, the “PBM E-score” value is -0.199. On to ACTGTCTG, for which the “PBM E-score” value was -0.191. With AAATAGTA, the “PBM E-score” value was found to be 0.00936. As for CCGTACTC, the “PBM E-score” value was -0.0134.

As to GGTCACCA, the “PBM E-score” value is -0.24. As to CTATCGAG, the “PBM E-score” value is -0.0625. The result for CGTGGGGC reads 0.13; that for AAGCTAAT, -0.074. The result for AGTTATCG reads 0.382; that for CTGTGTAC, -0.0675.

In the case of ACCAACAT, the “PBM E-score” value is -0.117.

Regarding GCCGCCTA, the “PBM E-score” value was -0.0827. As for CAGATCCA, the “PBM E-score” value is -0.0335.

As to CAGGTGAA, the “PBM E-score” value is -0.193. The result for CCAGCGAA reads -0.0597. As for TGATAAAA, the “PBM E-score” value is -0.0276. The result for GATTTCAA reads 0.167. With ATAGGACG, the “PBM E-score” value was -0.101. The result for AGCCACCT reads -0.268. Turning to GGCTACCA, the “PBM E-score” value was -0.204. As for ATGATTAG, the “PBM E-score” value was -0.0377. Turning to CGTTACGA, the “PBM E-score” value turned out to be 0.133. As to GGTTCTGA, the “PBM E-score” value is -0.0989. Turning to GCCGTGAC, the “PBM E-score” value worked out at 0.133. As to GCATGCGA, the “PBM E-score” value was determined as 0.0384. Take CCCCTCCC: the “PBM E-score” value was -0.00587. As for TAAAAGTA, the “PBM E-score” value is 0.0319. Under AATCAAGA stands -0.255; under ATGGCCCA, 0.116; under ACTGACCG, 0.226. On to CATCTTGA, for which the “PBM E-score” value is -0.139. On to CAGGGCGA, for which the “PBM E-score” value is -0.0338.

For the sequence GGGACGAA, the “PBM E-score” value was determined as 0.0323. Turning to ATCTTGAG, the “PBM E-score” value is -0.192.

On to GGAGATAC, for which the “PBM E-score” value worked out at 0.438. For CTTCCCGA, the “PBM E-score” value came to 0.143.

CGTGACAA: the “PBM E-score” value is -0.0742. AACGCATT: the “PBM E-score” value is 0.0181.

As for AGTCATCA, the “PBM E-score” value is -0.137.

Consider ATCGACTC, for which the “PBM E-score” value was -0.15.

As to CGTCGCAG, the “PBM E-score” value was -0.115. Regarding AGCCCAAC, the “PBM E-score” value was -0.259. The result for GGATGGTA reads -0.0158; that for GGACATTA, 0.368; that for ACGTAACC, 0.0628.

For CAATGATG, the “PBM E-score” value is -0.14. As for CCCGGTGA, the “PBM E-score” value came to 0.23.

On to CCAATCTA, for which the “PBM E-score” value is -0.0103. Take AATCCCGC: the “PBM E-score” value stood at 0.257.

Consider AGTAAGTC, for which the “PBM E-score” value was -0.0852. On to GCCTGACA, for which the “PBM E-score” value was -0.207. For CTATCTAC, the “PBM E-score” value is -0.0399. TACCAACA: the “PBM E-score” value was -0.294.

With TCTGTGCA, the “PBM E-score” value is -0.194. Take TGGAGAAA: the “PBM E-score” value is -0.0481. In the case of CGGCATCC, the “PBM E-score” value was 0.218. Regarding AAGCAGGT, the “PBM E-score” value was -0.0562.

For ACCGGAGC, the “PBM E-score” value worked out at 0.409. As for CGAATACG, the “PBM E-score” value was found to be 0.125. Under CAACCTCG stands 0.176; under CTGTAAAC, -0.373; under TAGAGGGA, -0.239. For CGTATACC, the “PBM E-score” value is -0.0877. With ACCTCCCT, the “PBM E-score” value is -0.183. As for CTTCCCTC, the “PBM E-score” value is -0.191. The result for ACGCCACA reads -0.0123; that for TGGCCAAA, -0.2; that for ACCACCTC, 0.118. Consider CCCTACAA, for which the “PBM E-score” value is -0.126. GGAGGGTA: the “PBM E-score” value stood at 0.107. CGCCAGTA: the “PBM E-score” value is -0.0225. Regarding GATCGTAC, the “PBM E-score” value was -0.00738. Turning to AAGGTCCG, the “PBM E-score” value was determined as 0.349. On to CAGTTTCC, for which the “PBM E-score” value amounted to 0.0814. Take GATTCGCC: the “PBM E-score” value turned out to be 0.0633. The result for ACATCTCT reads -0.0976; that for AACATTTG, -0.17; that for CTAGCTTC, -0.0202.

On to AGTCGTCA, for which the “PBM E-score” value is -0.255. Consider AAAACGCG, for which the “PBM E-score” value worked out at 0.149.

GGCAAAAA: the “PBM E-score” value is 0.123.

Turning to CCAAAGAG, the “PBM E-score” value is -0.139. As to TCGTATAA, the “PBM E-score” value was determined as 0.0439. In the case of AAATAACC, the “PBM E-score” value was determined as 0.0225. As for AATTTTGG, the “PBM E-score” value was -0.0933.

Regarding GAGGTGAA, the “PBM E-score” value was -0.0161. As to CAACCGTG, the “PBM E-score” value was -0.151. CCCACATC: the “PBM E-score” value is -0.0942. For the sequence ACGAGTAC, the “PBM E-score” value was -0.169. AGAGGAGG: the “PBM E-score” value was -0.278.
